Results: PMC12820563
Some of the results follow. The list includes weakly bound sequences.

biological target: T1, MBP-FoxP3dN (UniProt Q99JB6); experiment: PD-seq (MBP pull-down with sequencing); conditions: 20 mM Tris-HCl pH 7.5, 100 mM NaCl, 1.5 mM MgCl2, 0.4 uM protein, 0.1 uM dsDNA library, 30 min, room temperature, amylose pull-down; high values mean tight binding; double strand, one strand shown
T1 sequence: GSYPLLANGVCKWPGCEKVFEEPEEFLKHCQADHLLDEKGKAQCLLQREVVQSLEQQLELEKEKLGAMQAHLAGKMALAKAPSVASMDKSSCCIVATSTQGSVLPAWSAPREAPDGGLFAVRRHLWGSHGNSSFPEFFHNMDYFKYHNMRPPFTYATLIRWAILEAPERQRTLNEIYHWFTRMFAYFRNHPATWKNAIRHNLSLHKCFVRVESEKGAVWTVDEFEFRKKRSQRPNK

Row | Sequence | binding signal (RPM ratio (pull-down/input))
1 | GATGATTGTTCTCCCAGCTGATGAATTATCGGAGTCGAGTAAACAAATTTTCCTAATCTTTCTGTTCAAGCGCCATCTAC | 0.245
2 | GATGATTGTTCTCCCAGCTGATGAATTATTAGGGTCGAGTAAACAAATTTTCCTAATCTTTCTGTTCAAGCGCCATCTAC | 0.308
3 | GATGATTGTTCTCCCAGCTGATGAATTCGGAAGTTCGAGTAAACAAATTTTCCTAATCTTTCTGTTCAAGCGCCATCTAC | 0.245
4 | GATGATTGTTCTCCCAGCTGATGAATTATATGAGTCGAGTAAACAAATTTTCCTAATCTTTCTGTTCAAGCGCCATCTAC | 1.11
5 | GATGATTGTTCTCCCAGCTGATGAATTGAACAATTCGAGTAAACAAATTTTCCTAATCTTTCTGTTCAAGCGCCATCTAC | 0.41
6 | GATGATTGTTCTCCCAGCTGATGAATTGCCAATATCGAGTAAACAAATTTTCCTAATCTTTCTGTTCAAGCGCCATCTAC | 0.746
7 | GATGATTGTTCTCCCAGCTGATGAATTGGTGTGGTCGAGTAAACAAATTTTCCTAATCTTTCTGTTCAAGCGCCATCTAC | 1.32
8 | GATGATTGTTCTCCCAGCTGATGAATTTTAAAGCTCGAGTAAACAAATTTTCCTAATCTTTCTGTTCAAGCGCCATCTAC | 0.245
9 | GATGATTGTTCTCCCAGCTGATGAATTACATGTTTCGAGTAAACAAATTTTCCTAATCTTTCTGTTCAAGCGCCATCTAC | 0.983
10 | GATGATTGTTCTCCCAGCTGATGAATTAAGTGTCTCGAGTAAACAAATTTTCCTAATCTTTCTGTTCAAGCGCCATCTAC | 1.55
11 | GATGATTGTTCTCCCAGCTGATGAATTGATGAGATCGAGTAAACAAATTTTCCTAATCTTTCTGTTCAAGCGCCATCTAC | 0.309
12 | GATGATTGTTCTCCCAGCTGATGAATTGCGAGCGTCGAGTAAACAAATTTTCCTAATCTTTCTGTTCAAGCGCCATCTAC | 0.763
13 | GATGATTGTTCTCCCAGCTGATGAATTCGGGGTGTCGAGTAAACAAATTTTCCTAATCTTTCTGTTCAAGCGCCATCTAC | 0.934
14 | GATGATTGTTCTCCCAGCTGATGAATTCTTTTAATCGAGTAAACAAATTTTCCTAATCTTTCTGTTCAAGCGCCATCTAC | 0.213
15 | GATGATTGTTCTCCCAGCTGATGAATTACATTCGTCGAGTAAACAAATTTTCCTAATCTTTCTGTTCAAGCGCCATCTAC | 0.566
16 | GATGATTGTTCTCCCAGCTGATGAATTTAATGGGTCGAGTAAACAAATTTTCCTAATCTTTCTGTTCAAGCGCCATCTAC | 1.3

Row | Sequence | binding signal (RPM ratio (pull-down/input))
17 | GATGATTGTTCTCCCAGCTGATGAATTCGCTACCTCGAGTAAACAAATTTTCCTAATCTTTCTGTTCAAGCGCCATCTAC | 0.472
18 | GATGATTGTTCTCCCAGCTGATGAATTCTACAATTCGAGTAAACAAATTTTCCTAATCTTTCTGTTCAAGCGCCATCTAC | 0.354
19 | GATGATTGTTCTCCCAGCTGATGAATTAGATGGCTCGAGTAAACAAATTTTCCTAATCTTTCTGTTCAAGCGCCATCTAC | 0.686
20 | GATGATTGTTCTCCCAGCTGATGAATTATGGAGCTCGAGTAAACAAATTTTCCTAATCTTTCTGTTCAAGCGCCATCTAC | 0.305
21 | GATGATTGTTCTCCCAGCTGATGAATTTATCCCATCGAGTAAACAAATTTTCCTAATCTTTCTGTTCAAGCGCCATCTAC | 0.695
22 | GATGATTGTTCTCCCAGCTGATGAATTTACTCACTCGAGTAAACAAATTTTCCTAATCTTTCTGTTCAAGCGCCATCTAC | 0.62
23 | GATGATTGTTCTCCCAGCTGATGAATTAACTCCGTCGAGTAAACAAATTTTCCTAATCTTTCTGTTCAAGCGCCATCTAC | 0.236
24 | GATGATTGTTCTCCCAGCTGATGAATTTTTGCCGTCGAGTAAACAAATTTTCCTAATCTTTCTGTTCAAGCGCCATCTAC | 0.751
25 | GATGATTGTTCTCCCAGCTGATGAATTAAAAGAATCGAGTAAACAAATTTTCCTAATCTTTCTGTTCAAGCGCCATCTAC | 0.196
26 | GATGATTGTTCTCCCAGCTGATGAATTTGGGGAATCGAGTAAACAAATTTTCCTAATCTTTCTGTTCAAGCGCCATCTAC | 0.32
27 | GATGATTGTTCTCCCAGCTGATGAATTCAATGTATCGAGTAAACAAATTTTCCTAATCTTTCTGTTCAAGCGCCATCTAC | 1.5
28 | GATGATTGTTCTCCCAGCTGATGAATTGGCGCTGTCGAGTAAACAAATTTTCCTAATCTTTCTGTTCAAGCGCCATCTAC | 0.476
29 | GATGATTGTTCTCCCAGCTGATGAATTCTCTGACTCGAGTAAACAAATTTTCCTAATCTTTCTGTTCAAGCGCCATCTAC | 0.188
30 | GATGATTGTTCTCCCAGCTGATGAATTGCGGGCTTCGAGTAAACAAATTTTCCTAATCTTTCTGTTCAAGCGCCATCTAC | 0.686
31 | GATGATTGTTCTCCCAGCTGATGAATTTTAGCACTCGAGTAAACAAATTTTCCTAATCTTTCTGTTCAAGCGCCATCTAC | 0.537
32 | GATGATTGTTCTCCCAGCTGATGAATTATTTCGATCGAGTAAACAAATTTTCCTAATCTTTCTGTTCAAGCGCCATCTAC | 0.363
